Experimental data reported in the supplement of paper PMC10369915.
This is one part of the list. Cut-off read from the data, not from the text of the source: active = 3.2 or more and inactive = the rest. Most of these values are background signal.

B1: ALDH2_Y332 (peptide)
chain: VQEDIYDEFVE
B2: ALDH2_Y497 (peptide)
chain: RELGEYGLQAY
B3: ALDH2_Y497_YF (peptide)
chain: RELGEYGLQAF
B4: ALDH2_Y502 (peptide)
chain: YGLQAYTEVKT
B5: ALDH2_Y502_E504K_YF (peptide)
chain: FGLQAYTKVKT
B6: ALDH2_Y502_YF (peptide)
chain: FGLQAYTEVKT
B7: ALDH3A1_Y272 (peptide)
chain: SLKEFYGEDAK
B8: ALDH3A1_Y305 (peptide)
chain: GQKVAYGGTGD
B9: ALDH3B2_Y362_H361R (peptide)
chain: LKEIRYPPYTD
B10: ALDOA_Y138_G142V (peptide)
chain: ERCAQYKKDVA
B11: ALDOA_Y343_C339Y_YF (peptide)
chain: AFQGKYTPSGQ
B12: ALDOB_Y223 (peptide)
chain: NDHHVYLEGTL
B13: ALDOB_Y302 (peptide)
chain: KLSFSYGRALQ
B14: ALDOB_Y302_R304W (peptide)
chain: KLSFSYGWALQ
B15: ALK_Y1092_D1091N (peptide)
chain: TIMTNYNPNYC
B16: ALK_Y1096_D1091N (peptide)
chain: NYNPNYCFAGK
B17: ALK_Y1096_D1091N_YF (peptide)
chain: NFNPNYCFAGK
B18: ALK_Y1096_YF (peptide)
chain: DFNPNYCFAGK
B19: ALK_Y1131 (peptide)
chain: AFGEVYEGQVS

How the values were obtained:
Test in all cases: enrichment score (SH2-bound / input frequency) (ratio); bacterial display of known human phosphotyrosine sites (pTyr-Var adds point mutants) read by sequencing; higher = stronger binding; tyrosines were phosphorylated by kinases first
Conditions in all cases: peptide library: pTyr-Var
SHP2 C-SH2 domain E139D = molecular target: SHP2 C-SH2 domain E139D
[1] = molecular target: SHP2 C-SH2 domain wild-type
SHP2 N-SH2 domain L43F = molecular target: SHP2 N-SH2 domain L43F
SHP2 N-SH2 domain T42A = molecular target: SHP2 N-SH2 domain T42A
SHP2 N-SH2 domain T52S = molecular target: SHP2 N-SH2 domain T52S
[2] = molecular target: SHP2 N-SH2 domain wild-type
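Note: displayed peptides selected on beads carrying the immobilized SH2 domain, with library peptides lacking any tyrosine serving as negative controls.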

Binder | enrichment score (SHP2 C-SH2 domain E139D) | enrichment score [1] | enrichment score (SHP2 N-SH2 domain L43F) | enrichment score (SHP2 N-SH2 domain T42A) | enrichment score (SHP2 N-SH2 domain T52S) | enrichment score [2]
B1 | inactive: 0.814 | inactive: 1.07 | inactive: 0.878 | inactive: 0.852 | inactive: 0.882 | inactive: 0.891
B2 | inactive: 0.843 | inactive: 0.848 | inactive: 0.564 | inactive: 0.661 | inactive: 0.532 | inactive: 0.779
B3 | inactive: 0.743 | inactive: 0.654 | inactive: 1 | inactive: 0.473 | inactive: 0.855 | inactive: 0.765
B4 | inactive: 1.17 | inactive: 2.26 | inactive: 1.23 | active: 4.48 | inactive: 1.44 | inactive: 1.01
B5 | inactive: 1.22 | inactive: 1.73 | inactive: 1.27 | inactive: 1.72 | inactive: 1.33 | inactive: 1.18
B6 | inactive: 1.33 | inactive: 2.32 | inactive: 2.13 | active: 6.66 | inactive: 2.17 | inactive: 1.23
B7 | inactive: 0.743 | inactive: 0.797 | inactive: 0.755 | inactive: 0.718 | inactive: 0.624 | inactive: 0.719
B8 | inactive: 0.45 | inactive: 0.497 | inactive: 0.449 | inactive: 0.639 | inactive: 0.543 | inactive: 0.514
B9 | inactive: 0.943 | inactive: 0.883 | inactive: 0.985 | inactive: 0.923 | inactive: 0.976 | inactive: 0.888
B10 | inactive: 1.3 | inactive: 1.18 | inactive: 1.15 | inactive: 1.25 | inactive: 1.1 | inactive: 1.24
B11 | inactive: 0.954 | inactive: 1.15 | inactive: 0.944 | inactive: 0.736 | inactive: 0.725 | inactive: 0.703
B12 | inactive: 1.02 | inactive: 0.822 | inactive: 0.915 | inactive: 0.802 | inactive: 0.893 | inactive: 1.04
B13 | inactive: 1.08 | inactive: 0.882 | inactive: 0.929 | inactive: 1.05 | inactive: 0.98 | inactive: 1.11
B14 | inactive: 1.5 | inactive: 1.79 | inactive: 1.73 | inactive: 1.42 | inactive: 1.55 | inactive: 1.95
B15 | inactive: 1.04 | inactive: 0.626 | inactive: 0.782 | inactive: 0.656 | inactive: 0.638 | inactive: 0.982
B16 | inactive: 0.753 | inactive: 0.624 | inactive: 0.692 | inactive: 0.549 | inactive: 0.604 | inactive: 0.685
B17 | inactive: 0.712 | inactive: 0.713 | inactive: 0.664 | inactive: 0.804 | inactive: 0.748 | inactive: 0.87
B18 | inactive: 0.945 | inactive: 0.705 | inactive: 0.856 | inactive: 0.638 | inactive: 0.781 | inactive: 0.89
B19 | inactive: 0.762 | inactive: 0.594 | inactive: 0.657 | inactive: 0.599 | inactive: 0.605 | inactive: 0.761
